Publication PMC4336329 (PLoS ONE, 2015)
The whole screen tested about 310,000 compounds, of which about 2,200 (0.71%) showed an effect of 50% or more. Effects have a minus sign here. This is one part of the list.

target: human ether-à-go-go-related gene (hERG) potassium channel (human, UniProt Q12809); assay: primary screen, population patch clamp on CHO cells stably expressing hERG
Sequence (Q12809 whole entry, looked up): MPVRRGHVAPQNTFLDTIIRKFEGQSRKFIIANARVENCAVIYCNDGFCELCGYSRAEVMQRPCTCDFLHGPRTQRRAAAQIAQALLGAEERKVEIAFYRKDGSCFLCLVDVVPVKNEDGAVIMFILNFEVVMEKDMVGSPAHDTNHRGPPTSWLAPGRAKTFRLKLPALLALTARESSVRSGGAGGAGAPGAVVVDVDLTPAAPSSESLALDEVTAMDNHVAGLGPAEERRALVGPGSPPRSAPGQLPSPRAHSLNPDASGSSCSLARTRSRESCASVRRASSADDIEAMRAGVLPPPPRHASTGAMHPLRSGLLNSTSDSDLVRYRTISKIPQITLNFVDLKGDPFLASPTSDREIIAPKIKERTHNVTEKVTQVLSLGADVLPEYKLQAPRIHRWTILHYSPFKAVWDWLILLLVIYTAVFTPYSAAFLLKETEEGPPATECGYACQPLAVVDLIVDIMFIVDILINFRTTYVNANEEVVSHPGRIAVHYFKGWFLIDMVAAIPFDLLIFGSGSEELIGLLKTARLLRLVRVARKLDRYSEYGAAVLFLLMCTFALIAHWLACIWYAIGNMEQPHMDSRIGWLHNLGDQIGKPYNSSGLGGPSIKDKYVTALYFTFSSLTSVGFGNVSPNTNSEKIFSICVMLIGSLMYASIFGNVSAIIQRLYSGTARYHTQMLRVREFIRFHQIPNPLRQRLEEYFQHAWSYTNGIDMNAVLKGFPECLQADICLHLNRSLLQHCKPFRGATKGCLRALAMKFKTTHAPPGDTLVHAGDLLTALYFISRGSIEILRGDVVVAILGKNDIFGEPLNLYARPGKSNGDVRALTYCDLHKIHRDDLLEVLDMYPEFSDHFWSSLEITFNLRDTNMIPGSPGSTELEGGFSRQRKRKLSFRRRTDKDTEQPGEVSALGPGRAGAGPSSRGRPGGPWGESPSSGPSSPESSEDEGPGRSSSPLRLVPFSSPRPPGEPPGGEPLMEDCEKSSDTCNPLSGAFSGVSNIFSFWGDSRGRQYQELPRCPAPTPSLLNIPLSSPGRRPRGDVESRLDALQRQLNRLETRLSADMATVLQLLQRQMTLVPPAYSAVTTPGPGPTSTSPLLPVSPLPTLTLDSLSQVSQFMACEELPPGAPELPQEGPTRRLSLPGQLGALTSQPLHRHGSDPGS

Row | Compound | hERG current change (%, negative = inhibition) at 1uM [%]
1 | COc1cccc(C(=O)NCC(=O)N/N=C/c2cccnc2)c1 | 13.9
2 | CCCCCCSc1cc(-c2nc3ccc(Cl)cn3c2NCCCC)ccc1OC.O=C(O)C(F)(F)F | 11.8
3 | COc1ccc(NC(=O)COC(=O)C2CC(=O)N(c3ccc(OC(C)C)cc3)C2)cc1 (stereo not drawn) | 8.88
4 | O=C(CSc1ccc2nnc(-c3ccncc3)n2n1)Nc1ccccc1F | 6.75
5 | O=C(O)c1cccc(-n2c(O)c(C=C3N=c4ccccc4=N3)sc2=S)c1 | 13.3
6 | Cc1cc2c3c([nH]c2cc1S(=O)(=O)NCc1ccc(CN2CCCCCC2)o1)CC(C)(C)CC3=O | 12.1
7 | Cn1c(=O)oc2cc(S(=O)(=O)N3CCC(C(=O)NCc4ccccc4Cl)CC3)ccc21 | -0.101
8 | COc1ccc(-c2ccc(NCCC3=CCCCC3)nn2)cc1OC | 20.6
9 | O=C(Oc1ccccc1[N+](=O)[O-])c1cccnc1 | 4.97
10 | O=C(NCCS(=O)(=O)N1CCN(c2ccccc2)CC1)c1ccco1 | 3.08
11 | COc1ccccc1N1CCN(c2nc3c(C)cccn3c(=O)c2C=O)CC1 | -9.61
12 | Cc1ccc(S(=O)(=O)CC(=O)Nc2nccs2)cc1 | 17
13 | Cn1c(CCC(=O)OCC(=O)NCc2ccccc2Cl)nc(=O)c2ccccc21 | 13.4
14 | COc1cccc(/C=N/n2c(N)nc3ccccc32)c1OC | 11.8
15 | COCC1CCN(C(=O)C2CCC(=O)N(Cc3ccc(Cl)cc3)C2)CC1 (stereo not drawn) | 13.5
16 | COc1ccc(NC(=O)C(CC(C)C)NC(=O)c2ccccc2C)cn1 (stereo not drawn) | 1.14
17 | CC1(C)NC(=O)N(CCCCOc2cccc(C(F)(F)F)c2)C1=O | 3.5
18 | CC(=O)Oc1ccc(C(=O)Nc2nccs2)cc1 | 8.57
19 | O=C(N/N=C/c1ccc[nH]1)c1ccc(O)cc1 | 18.9
20 | Cc1ccc(C)n1-c1cccc(N)c1 | -12.2
21 | Cc1cc(=O)oc2cc(NC(=O)CN3C(=O)NC(C)(c4ccccc4)C3=O)ccc12 (stereo not drawn) | 14.6
22 | CC(C)(C)c1ccc(NC(=O)CN2C(=O)NC(C)(C3CC3)C2=O)cc1 (stereo not drawn) | -12.6
23 | Cc1cccc(C)c1N1C(=O)[C@@H]2C(c3ccccc3Cl)=NO[C@@H]2C1=O | 10.1

Row | Compound | hERG current change (%, negative = inhibition) at 1uM [%]
24 | COc1ccc(-n2nc(C(=O)NCC(=O)Nc3cc(C)ccc3OC)c3ccccc3c2=O)c(OC)c1 | 9.36
25 | O=C(N=C1SC2CS(=O)(=O)CC2N1c1ccc(F)c(Cl)c1)C1CC1 (stereo not drawn) | 15.1
26 | CCOC(=O)CN1C(=O)c2ccccc2Sc2ncccc21 | 10.1
27 | CN1CCCC(OC(=O)c2cccc(Cl)c2)C1.Cl (stereo not drawn) | 6.78
28 | COc1ccc(S(=O)(=O)N(CCCN2CCOCC2)Cc2cccc(OC)c2OC)cc1 | 10.4
29 | CCC(O)(CC)C(=O)N=Nc1c(O)[nH]c2ccccc12 | 14.2
30 | CC(=O)Nc1cccc(C(=O)OC(C)C(=O)NCc2ccc3c(c2)OCO3)c1 (stereo not drawn) | 11.2
31 | COc1ccc(CNC(=O)Cn2cccc2C(=O)c2ccccc2)cc1 | 2.79
32 | CCOc1cc(C2C(C#N)=C(N)OC(C)=C2C(C)=O)c(Br)c(Br)c1OC(C)C (stereo not drawn) | 14.6
33 | CC(NC(=O)CCc1c[nH]c2ccccc12)c1ccccc1 (stereo not drawn) | 23.2
34 | COC(=O)[C@@H](NC(=O)Nc1ccc(C(C)=O)cc1)C(C)C | 8.02
35 | COc1nc(Nc2nc3ccccc3c(=O)[nH]2)nc2ccc(C)cc12 | -0.611
36 | COc1cccc(OCc2cc(C(=O)N(C)Cc3nc(C)cs3)no2)c1 | 7.39
37 | CCC(C)c1ccc(NC(=O)C/C(C)=N/NC(=O)c2cnccn2)cc1 (stereo not drawn) | -0.845
38 | CC(=O)c1cccc(S(=O)(=O)NCC2CCCCC2)c1 | -4.73
39 | O=C(CSc1ncn[nH]1)Nc1ccccc1-c1ccccc1 | 12.3
40 | S=C(NC1CCCCC1)NN1CCOCC1 | 6.84
41 | CC1(C)Cc2ccccc2-c2nc(NN)[nH]c(=O)c21 | 18.1
42 | COc1cc(CN2CCN(C(=O)CC(C)C)CC2)c([N+](=O)[O-])cc1OC | 11.2
43 | Cc1cc(=O)[nH]c(SCC(=O)Nc2ccc(Br)cc2)n1 | 8.23
44 | CCCCCCCCCCCCN1[C@@H](CC(C)=O)c2cc(F)ccc2S1(=O)=O | 9.12
45 | CCC(=O)N(Cc1cc(=O)[nH]c2ccccc12)c1cccc(C)c1 | 5.99
